Experimental data reported in patent US11446308B2, “Methods and compositions for the prevention and treatment of hearing loss” (St. Jude Children's Research Hospital, priority 2015, dated 2022).

Columns and labels:
[1] = system: outer hair cells (OHCs) in mouse cochlear explants; assay: Protection against cisplatin-induced hair cell loss in neonatal (P3) mouse cochlear explants; assay type: cell-based; details: for OHC survival: 24 hr cisplatin co-treatment
[2] = system: hair cells in mouse cochlear explants; details: 24 h
[3] = system: mouse medulloblastoma neurosphere lines and human neuroblastoma cell lines; assay: Interference with cisplatin's killing function in tumor cell lines (Cell Titer Glo); assay type: cell-based; details: 48 hours, cisplatin 23 μM, compound 3×IC50
Protocol: FIG. 11 addresses interference with cisplatin's killing function in tumors. Four neurosphere lines derived from mouse medulloblastoma (MB) and two human neuroblastoma (NB) cell lines were tested. HEI-OC1 cell line was tested as controls.
Table 1 lists the top 18 compound hits in the screen in terms of high potency and low toxicity. The top ten compounds were further evaluated by a viability assay (Cell Titer Glo, Promega) in medulloblastoma neurosphere cell lines and neuroblastoma cell lines to test whether they inhibit the ability of cisplatin to kill the tumor cells. The majority had no antagonistic effect on cisplatin's antitumor activity (data not shown) and are therefore safe to use systemically together with cisplatin during chemotherapy to protect against cisplatin-induced hearing loss.

[4] = system: hair cells in zebrafish lateral line neuromasts; details: 5-dpf larvae
Protocol: The experiments were performed with 5-dpf larval zebrafish of the *AB wild-type strain. Dose-response studies were performed to find the cisplatin concentration at which most of the hair cells in each neuromast were killed in the absence of a protective compound and at the same DMSO concentration (<0.2%).
Experiments were performed in 24-well plates with 5 fish per well in volumes of 1-2 mL. Fish were incubated with 5 μM and stained with 0.005% DASPEI vital dye for 15 minutes. After two washes with egg water, fish were visualized in an epiflourescence microscope. […] Results were plotted as percent survival of hair cells in the cisplatin-treated fish relative to the untreated fish (FIG. 4A-E).

[5] = system: HEI-OC1 cells; details: mouse, 22 h
[6] = target: CDK2 (Homo sapiens, UniProt P24941); details: ATP-competitive; cited from earlier work
[7] = target: Cdk2 immunoprecipitated from HEI-OC cells (Mus musculus, UniProt P97377); assay: CDK2 kinase activity in vitro, phosphorylation of histone H1; assay type: biochemical; details: increasing doses, with or without cisplatin treatment of cells
[8] = system: hair cells in zebrafish lateral line neuromasts; assay: Protection against cisplatin-induced hair cell loss in zebrafish lateral lines in vivo; details: 5 μM cisplatin

| Structure (SMILES) | protection against cisplatin-induced hair cell loss in cochlear explants ([1]; 50 μM cisplatin, 24 hrs) | OHC survival [1] | Mouse Explant LD50 [2] | interference with cisplatin anti-tumor activity [3] | Zebrafish LD50 [4] | HEI-OC1 LD50 [5] | IC50 [6] | CDK2 kinase activity [7] | IC50 ([1]; P3 cochlear explants, 50 μM cisplatin, 24 hrs, read-out: Mouse Explant IC50) | comparison with germline CDK2 knockout explants ([1]; cisplatin plus kenpaullone, WT and CDK2 KO cochleae) | Explant Cisplatin LD50 [2] | protection of zebrafish neuromasts against cisplatin-induced hair cell loss [8] | IC50 ([8]; Danio rerio, 5-dpf larvae) |
| --- | --- | --- | --- | --- | --- | --- | --- | --- | --- | --- | --- | --- | --- |
| NS(=O)(=O)c1ccc(NN=C2C(=O)Nc3cc(Br)ccc32)cc1 [Compound 12, CDK2 inhibitor II] | protect against cisplatin-induced hair cell loss | 100% | >12 µM | no interference in all tumor cell lines | >50 µM | >40 µM | 60 nM | – | – | – | – | – | – |
| O=C1Cc2c([nH]c3ccc(Br)cc23)-c2ccccc2N1 [Compound 4, Kenpaullone] | protect against cisplatin-induced hair cell loss | 100% | >30 µM | – | <90 µM | >40 µM | – | inhibits CDK2 kinase activity | ~150 nM | phenocopies CDK2 knockout resistance to cisplatin ototoxicity | > 30 µM | significant protection | ~30000 nM |
